In PMC4336329 (PLoS ONE, 2015):
The campaign covered roughly 310,000 compounds. About 14,000 (4.5%) showed an effect of 50% or more. The effect is printed as a negative number. This is one part of the list.

target: human ether-à-go-go-related gene (hERG) potassium channel (human, UniProt Q12809); experiment: primary screen, population patch clamp on CHO cells stably expressing hERG
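Note: peak tail current of the secondary pulse compared with the same well before compound.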

human ether-à-go-go-related gene (hERG) potassium channel, sequence (Q12809 whole entry, looked up): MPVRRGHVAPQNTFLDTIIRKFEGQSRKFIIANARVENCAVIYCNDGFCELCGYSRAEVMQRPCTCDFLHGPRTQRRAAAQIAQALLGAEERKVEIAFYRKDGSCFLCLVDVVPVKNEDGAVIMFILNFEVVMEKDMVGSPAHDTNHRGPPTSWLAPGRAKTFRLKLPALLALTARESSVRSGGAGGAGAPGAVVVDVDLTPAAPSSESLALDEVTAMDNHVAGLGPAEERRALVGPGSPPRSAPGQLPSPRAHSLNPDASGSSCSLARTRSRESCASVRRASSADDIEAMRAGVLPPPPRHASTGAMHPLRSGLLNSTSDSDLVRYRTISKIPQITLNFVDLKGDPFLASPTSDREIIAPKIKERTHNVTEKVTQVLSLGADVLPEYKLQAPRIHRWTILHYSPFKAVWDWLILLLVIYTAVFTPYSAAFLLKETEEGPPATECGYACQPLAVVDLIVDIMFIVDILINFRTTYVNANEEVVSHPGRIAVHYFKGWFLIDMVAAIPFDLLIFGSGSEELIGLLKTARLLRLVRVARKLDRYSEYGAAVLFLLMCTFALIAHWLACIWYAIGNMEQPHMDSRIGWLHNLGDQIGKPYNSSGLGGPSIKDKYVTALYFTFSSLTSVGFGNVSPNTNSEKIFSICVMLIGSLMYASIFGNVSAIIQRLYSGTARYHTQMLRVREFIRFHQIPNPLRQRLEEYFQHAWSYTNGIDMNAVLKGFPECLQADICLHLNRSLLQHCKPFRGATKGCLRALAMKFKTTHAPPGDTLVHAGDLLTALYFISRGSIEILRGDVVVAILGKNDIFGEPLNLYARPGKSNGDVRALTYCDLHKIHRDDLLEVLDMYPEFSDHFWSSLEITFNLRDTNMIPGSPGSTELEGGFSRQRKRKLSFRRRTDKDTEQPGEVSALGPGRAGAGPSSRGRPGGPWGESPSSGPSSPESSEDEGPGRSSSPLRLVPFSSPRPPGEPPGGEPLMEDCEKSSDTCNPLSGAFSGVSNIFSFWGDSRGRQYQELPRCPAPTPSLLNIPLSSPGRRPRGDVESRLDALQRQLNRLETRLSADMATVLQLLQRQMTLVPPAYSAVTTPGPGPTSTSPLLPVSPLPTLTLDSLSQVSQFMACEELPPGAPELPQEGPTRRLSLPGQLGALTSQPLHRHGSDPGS

Row | SMILES | hERG current change (%, negative = inhibition) at 10uM [%]
1 | c1ccc(COc2ccc(CNn3cnnc3)cc2)cc1 | 9.48
2 | CCc1c(C(=O)O)[nH]c2ccc(Br)cc12 | 7.89
3 | O=c1ccc(/C=C/c2ccccc2)nn1Cc1ccccc1Cl | 0.487
4 | COc1ccc(NCN2C(=O)C3C4C=CC(C4)C3C2=O)cc1 (stereo not drawn) | 16.2
5 | O=C1c2cccc3cccc(c23)C(=O)N1CCCc1n[nH]c(=S)n1-c1ccccc1 | 16.6
6 | CC(NC(=O)CCC(=O)c1ccc(F)cc1)C1CC2CCC1C2 (stereo not drawn) | -9.78
7 | O=C(COc1ccc2c(c1)CCC2)N1CCc2ccccc21 | 15.4
8 | COc1cccc(Nc2ncccc2C(=O)O)c1 | 9.1
9 | COc1cc(OC)c(/C=N/n2c(C3CCCCC3)n[nH]c2=S)c(OC)c1 | 22.6
10 | O=C(N/N=C/c1cccnc1)c1cccc(S(=O)(=O)Nc2cccc(Cl)c2)c1 | 10.9
11 | COC(=O)c1ccc(CNC(=O)COC(=O)CCC2CCCC2)cc1 | 7.42
12 | Cc1ccc(S(=O)(=O)N2CCCC2C(=O)NCc2ccncc2)cc1 (stereo not drawn) | 7.55
13 | CC(C)(C)c1nc2c(Br)cc(Br)cc2c(=O)o1 | 18.9
14 | Cc1c(NC(=O)CC2NC(=O)NC2=O)c(=O)n(-c2ccccc2)n1C (stereo not drawn) | 1.27
15 | CCOC(=O)N1CCC(N2Cc3cccc(C(=O)O)c3C2=O)CC1 | -23.6
16 | COc1cccc(-c2nnc(SCC(=O)NCc3ccc4c(c3)OCO4)n2Cc2ccco2)c1 | -49.7
17 | CCn1c2ccccc2c2cc(NC(=O)c3cc(OC)c(OC)c(OC)c3)ccc21 | 4.1
18 | CC(=O)Nc1cccc(NC(=O)c2ccc3[nH]c(C)c(C)c3c2)c1 | 18.1
19 | O=C(COC(=O)c1ccc(S(=O)(=O)C(F)F)cc1)Nc1cccnc1Cl | -5.46

Row | SMILES | hERG current change (%, negative = inhibition) at 10uM [%]
20 | CCn1c(/N=C/c2ccccc2NS(=O)(=O)c2ccc(C)cc2)nc2ccccc21 | -19.8
21 | O=C(Cc1cccc2ccccc12)N1CCCc2ccccc21 | -7.17
22 | COc1ccc(/C=C/C(O)=C2/C(=O)N(C)C3(C)CC2c2ccccc2O3)cc1 (stereo not drawn) | -13.4
23 | O=C(CCC1CC(=O)Nc2ccccc21)NCc1ccccc1 (stereo not drawn) | 2.63
24 | CCOC(=O)CN1CC23C=CC(O2)C(C(=O)NCc2ccc(C)cc2)C3C1=O (stereo not drawn) | -2.67
25 | COc1cc(SC)ccc1C(=O)Nc1ccc(Cl)cn1 | 28.4
26 | O=C1c2ccccc2C(=O)N1CCSC(=S)N1CCOCC1 | 10.9
27 | NS(=O)(=O)c1ccc(NC(=O)c2ccc3c(c2)CCCC3)cc1 | 23.5
28 | Cc1cc(C)n(CC(=O)N/N=C/c2cc([N+](=O)[O-])ccc2O)n1 | -11.7
29 | Cc1ccc(OCCNC(=O)c2cc(C(=O)NCCOc3ccc(C)cc3)cc([N+](=O)[O-])c2)cc1 | -7.93
30 | Cc1nc(-c2ccc(Cl)cc2)sc1C1(C)CC(c2ccc(Br)cc2)=NO1 (stereo not drawn) | -11
31 | Cc1c(Cl)cn2c(=O)cc(CN3CCN(c4ccccc4)CC3)nc2c1Cl | -20.9
32 | COC(=O)C1=C(N)Oc2cc(N(C)C)ccc2C1c1ccccc1OC (stereo not drawn) | -84.3
33 | CCOc1ccc(CCNC(=O)CS(=O)(=O)Cc2nc(-c3ccccc3F)oc2C)cc1 | 3.08
34 | CCOC(=O)N=S(=O)(Oc1ccc([N+](=O)[O-])cc1)c1ccc(Cl)cc1 (stereo not drawn) | -32.6
35 | O=C(NNc1cccc(Cl)n1)c1ccc(Cl)nc1 | 4.92
36 | Cc1c(C(=O)Nc2ccccc2)csc1-c1ccccc1 | 5.68
37 | N#C/C(=C/c1ccc(N2CCOCC2)o1)c1nc2ccccc2[nH]1 | -14.1
38 | O=C(c1ccc2c(=O)n(C3CCCC3)c(=S)[nH]c2c1)N1CCCCCC1 | -27.6

Row | SMILES | hERG current change (%, negative = inhibition) at 10uM [%]
39 | CS(=O)(=O)N(CC(=O)NCCC1=CCCCC1)c1cccc([N+](=O)[O-])c1 | -32.4
40 | Cc1oc(-c2ccccc2F)nc1CS(=O)CC(=O)N1CCC2(CC1)OCCO2 (stereo not drawn) | 5.23
41 | Cc1ccc(C(=O)OCc2nnc(-c3ccccc3)o2)o1 | -9.05
42 | Cc1cccc(Nc2cc(C)c3c(O)cccc3n2)c1C | -9.3
43 | C=CCNc1oc(C2CCCC2)nc1C#N | 13.5
44 | COc1ccc(CN2CC(=O)N(c3cc(Cl)ccc3OC)C2=S)cc1OC | 6.76
45 | CN(CCO)c1nc2c(c(=O)n(Cc3ccc(Cl)cc3)c(=O)n2C)n1C | 3.79
46 | CN1CCN(NC(=O)c2ccc(Cl)s2)CC1 | 13.7
47 | COC(=O)C(C(=O)Nc1cc(C)on1)C1CCCCCC1 (stereo not drawn) | 6.48
48 | CCOC(=O)CSc1ccc2nnc(CCNS(=O)(=O)c3ccccc3)n2n1 | 16.5
49 | O=c1oc(CCO)cc2ccc(C#Cc3ccsc3)cc12 | 15.8
50 | COc1ccc(S(=O)(=O)Nc2c(NC3CCCCC3)c3ccccc3oc2=O)cc1 | -45.2
51 | COc1c(F)c(F)c(C(=O)Nc2ccc3oc(-c4ccncc4)nc3c2)c(F)c1F | 12.4
52 | COCCn1c(SCC(=O)NC(=O)NC(C)C)nc2ccccc21 | 7.4
53 | COc1ccc2cc(C3(C)NC(=O)N(CC(=O)NCc4ccco4)C3=O)ccc2c1 (stereo not drawn) | -15.3
54 | O=C(Nc1ccncc1)c1ccc2c(c1)S(=O)(=O)c1ccccc1C2=O | -1.57
55 | CNC(=O)C(=O)Nc1c(O)c2ccccc2[nH]c1=O | 3.83
56 | COc1ccc(NS(=O)(=O)c2cccc(C(=O)O)c2)cc1 | 4.11
57 | O=C(CNC(=O)c1ccccc1)NCC(O)c1ccc([N+](=O)[O-])cc1 (stereo not drawn) | 10.7
